# Test results reported in PMC4336329 (PLoS ONE, 2015).
# Screen size: about 310,000 compounds; about 2,200 (0.71%) showed an effect of 50% or more. The effect is printed as a negative number. Some of the results follow.
# Target: human ether-à-go-go-related gene (hERG) potassium channel (human, UniProt Q12809)
# Assay: primary screen, population patch clamp on CHO cells stably expressing hERG
# Chain of human ether-à-go-go-related gene (hERG) potassium channel (Q12809 whole entry, looked up): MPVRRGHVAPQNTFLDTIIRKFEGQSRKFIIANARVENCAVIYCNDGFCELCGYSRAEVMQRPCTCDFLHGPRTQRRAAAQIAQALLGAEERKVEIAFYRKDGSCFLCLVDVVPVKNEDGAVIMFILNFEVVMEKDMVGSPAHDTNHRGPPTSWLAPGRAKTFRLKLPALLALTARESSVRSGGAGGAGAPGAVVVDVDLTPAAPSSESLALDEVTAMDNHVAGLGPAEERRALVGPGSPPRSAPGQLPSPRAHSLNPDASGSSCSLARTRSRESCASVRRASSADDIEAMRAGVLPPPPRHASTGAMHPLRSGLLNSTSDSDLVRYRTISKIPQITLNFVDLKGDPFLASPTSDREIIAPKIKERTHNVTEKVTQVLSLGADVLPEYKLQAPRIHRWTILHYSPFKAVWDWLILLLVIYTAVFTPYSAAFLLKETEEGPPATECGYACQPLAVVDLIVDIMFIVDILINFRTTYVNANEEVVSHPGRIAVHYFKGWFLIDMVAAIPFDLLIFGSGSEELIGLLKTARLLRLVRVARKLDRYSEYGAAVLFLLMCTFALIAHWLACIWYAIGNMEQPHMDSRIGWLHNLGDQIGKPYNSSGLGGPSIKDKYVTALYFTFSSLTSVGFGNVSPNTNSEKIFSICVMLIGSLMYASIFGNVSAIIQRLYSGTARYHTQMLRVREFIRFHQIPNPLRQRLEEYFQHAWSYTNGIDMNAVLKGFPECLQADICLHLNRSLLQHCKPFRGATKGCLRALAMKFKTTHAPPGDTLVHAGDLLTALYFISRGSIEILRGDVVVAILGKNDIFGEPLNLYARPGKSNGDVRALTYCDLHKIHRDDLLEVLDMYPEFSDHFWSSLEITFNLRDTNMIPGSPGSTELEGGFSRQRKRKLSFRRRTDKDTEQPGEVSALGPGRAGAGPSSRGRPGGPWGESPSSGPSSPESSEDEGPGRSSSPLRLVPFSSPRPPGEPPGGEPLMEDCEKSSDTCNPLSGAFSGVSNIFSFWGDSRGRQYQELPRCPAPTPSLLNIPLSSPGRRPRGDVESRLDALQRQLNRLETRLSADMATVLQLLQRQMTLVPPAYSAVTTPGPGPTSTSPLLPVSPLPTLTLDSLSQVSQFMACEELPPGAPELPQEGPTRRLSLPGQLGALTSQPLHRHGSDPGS
row,Structure (SMILES),"hERG current change (%, negative = inhibition) at 1uM [%]"
1,COc1ccc(C(=O)Nc2cccc(OC(=O)c3ccc(C)c(C)c3)c2)cc1,4.55
2,COc1ccc(/C=C/C(=O)Nc2ccccc2C(=O)O)cc1OC,1.14
3,O=C(Nc1cccc(NC(=O)c2ccco2)c1)c1ccccc1,8.64
4,Cc1ccc(-c2c[n+]3c(n2-c2ccccc2)SCC3)cc1.[Br-],3.99
5,CC(=O)c1sc(NC(=O)C2CCN(C(=O)c3ccccc3C)CC2)nc1-c1ccccc1,3.01
6,N#CC(=C1Nc2ccccc2N1)S(=O)(=O)c1ccccc1,12.6
7,O=C(CN(c1ccccc1F)S(=O)(=O)c1ccccc1)NC1CCCCCC1,0.113
8,O=C(COC(=O)[C@@H]1CCCN1S(=O)(=O)c1ccc(Cl)cc1)NC1CCS(=O)(=O)C1 (stereo partly shown),3.16
9,O=[N+]([O-])c1ccc(S(=O)(=O)NCC2COc3ccccc3O2)cc1 (stereo not shown),6.48
10,CCN(c1ccccc1)c1cc(C)nc2nc(C)nn12,9.63
11,CSc1ccc(Cl)c(C(=O)NCC(C)C)c1,16.1
12,CCOC(=O)C1(CC2CCCCO2)CCN(C(=O)Nc2ccc(C(=O)OC)cc2)CC1 (stereo not shown),6.97
13,CCCn1c(N)c(N(CCOC)C(=O)c2ccc(N(C)S(=O)(=O)c3ccc(C)cc3)cc2)c(=O)[nH]c1=O,5.23
14,COc1ccc(CNc2nc3nc(-c4ccccc4)cc(=O)n3[nH]2)cc1OC,-12.9
15,O=C(O)c1ccc2c(c1)C1C=CCC1C(c1cc3c(cc1Br)OCO3)N2 (stereo not shown),15
16,COc1ccccc1CCCNC(=O)C1CCC(=O)N(Cc2ccccc2F)C1 (stereo not shown),5.57
17,CCc1nnc(SCC(=O)NC2CCCCC2)nc1CC,-10.6
18,Cc1ccc(S(=O)(=O)NCCC(c2ccc(F)cc2)c2ccco2)cc1 (stereo not shown),16.1
19,COc1ccc(N2CC(C(=O)Nc3nnc(SCC(=O)NC4CCCC4)s3)CC2=O)cc1 (stereo not shown),15.8
20,O=C1/C(=C/c2cccc([N+](=O)[O-])c2)CSc2ccc(Cl)cc21,13.6
21,CCCCC(=O)Nc1cccc(NC(=O)c2cccnc2Cl)c1,6.85
22,COc1ccc(N2CCN(S(=O)(=O)CCNC(=O)C(C)Oc3ccccc3)CC2)cc1 (stereo not shown),7.29

row,Structure (SMILES),"hERG current change (%, negative = inhibition) at 1uM [%]"
1,COC(=O)C1CCN(C(=O)CCC2CCCCC2)CC1,15.2
2,O=C(CCSc1ccc(Cl)c(Cl)c1)NC12CC3CC(CC(C3)C1)C2,9.66
3,CCc1cc(C(=O)N(C)CC(=O)Nc2c(Cl)cccc2Cl)sc1C,9.86
4,Cc1cc(C)cc(NC(=O)C2C3C=CC4(O3)C2C(=O)N(CCCN(C)C)C4C(=O)NC2CCCC(C)C2C)c1 (stereo not shown),15.2
5,Cc1ccc(S(=O)(=O)N2CC=C(c3ccc(F)cc3)CC2)cc1,-5.65
6,Cc1ccc2c(CN3CCCCC3)cc(=O)oc2c1C,-1.56
7,COc1ccc2c(c1)CC[C@@H]1[C@@H]2CC[C@]2(C)[C@@H](C(C)=O)C[C@@H]12,5.61
8,O=C(O)c1ccc(N(Cc2ccccc2)S(=O)(=O)c2ccccc2)cc1,7.52
9,COc1ccc2nc(N3CCCC(O)C3)c(C#N)cc2c1 (stereo not shown),7.22
10,COc1ccc(C2=CC(=O)CC(C)(C)C2)cc1OC,3.16
11,NC(=O)NCc1ccc(C(=O)OCc2ccncc2)cc1,9.01
12,COc1ccc2oc(C(=O)OCC(=O)Nc3ccccc3)c(C)c2c1,8
13,COc1cccc(N2CCN(c3nc(C)cc(C)c3C#N)CC2)c1,10.4
14,Cc1ccc(S(=O)(=O)Cn2nnnc2CN2CCOCC2)cc1,12.3
15,Cc1cc(C#N)c(C)c(SCc2[nH]nc3c2C(c2ccccc2)C(C#N)=C(N)O3)n1 (stereo not shown),6.23
16,CCNc1nc(Oc2ccc(=O)[nH]n2)nc(SC)n1,5.38
17,COc1ccc(OC)c(S(=O)(=O)Nc2cccc(C(C)=O)c2)c1,7.6
18,O=C(O)CC(c1ccc(Cl)cc1)N1C(=O)CCC1=O (stereo not shown),2.56
19,Cc1ccc(C(=O)NC(=S)Nc2ccccc2C(F)(F)F)cc1,11.6
20,O=c1c2ccccc2ncn1-c1ccc(Cl)c(Cl)c1,6.33
21,COc1ccc(OC)c(N(CC(=O)NC2CC2)S(=O)(=O)c2ccc(C)cc2)c1,9.31
22,CCC1C(O)=C(c2ccccn2)C(=N)N1c1ccccc1 (stereo not shown),7.84

row,Structure (SMILES),"hERG current change (%, negative = inhibition) at 1uM [%]"
1,COC(=O)c1cc(S(=O)(=O)NCC2CCN(Cc3ccccc3F)CC2)c[nH]1,5.39
2,COc1cccc(-c2coc3cc4oc(=O)c(CCC(=O)O)c(C)c4cc23)c1,6.77
3,CN(C(=O)CSc1nnc(Cc2cccc3ccccc23)n1N)C1CCS(=O)(=O)C1 (stereo not shown),16
4,CC1=C(C(=O)OC(C)C)C(c2cccs2)N2C(=O)C(C)SC2=N1 (stereo not shown),16.1
5,CCOC(=O)c1c(S(=O)(=O)NCC(=O)Nc2cc(C)ccc2C)c(C)n(C)c1C,10.1
6,Oc1ccccc1/C=N/n1c(COc2ccccc2)n[nH]c1=S,13.7
7,C=CCSc1nnc2c(n1)OC=Nc1ccc(Br)cc1-2,1.61
8,CCC1(C(=O)OC)NC(c2cccc(F)c2)C2C(=O)N(C)C(=O)C21 (stereo not shown),22.6
9,CCCCn1c(N)c(N(CCOC)C(=O)c2cc3c(s2)CCC3)c(=O)[nH]c1=O,4.48
10,CCC(=O)N1c2ccccc2NC2=C(C(=O)CCC2)C1c1ccco1 (stereo not shown),13.5
11,Cn1nc(C(F)(F)F)c(/C=N/OC(=O)c2ccccc2)c1SCc1ccccc1Cl,7.7
12,Cc1ccc(-n2nc(C)c(NS(=O)(=O)c3ccccc3)c2C)cc1C,-9.54
13,O=C(Nc1ccccc1)C1CCCN(C(=O)c2ccc(Cl)cc2)C1 (stereo not shown),-6.09
14,O=C1CCC(C(=O)OCC(=O)c2ccccc2)N1 (stereo not shown),8.09
15,O=C(NC(C(=O)c1ccccc1)n1ccc(=O)[nH]c1=O)c1ccccc1 (stereo not shown),6.41
16,CC(NC(=O)CCNC(=O)c1ccccc1Cl)C1CC2CCC1C2 (stereo not shown),-13.8
17,Cc1ccccc1NC(=S)Nc1ccc2cn[nH]c2c1,9.24
18,Cc1cc(C)n2nc(SCC(=O)c3ccccc3)nc2n1,5.55
19,Cc1ccsc1/C=N/Nc1ccc(F)cc1F,12.9
20,CC(CC(=O)O)n1nnc2ccccc21 (stereo not shown),10.2
21,CC(=NCc1cccnc1)C1=C(O)c2ccccc2C1=O,8.39
22,CC(C)CN(C(=O)COC(=O)CN1C(=O)c2ccccc2C1=O)c1c(N)n(Cc2ccccc2)c(=O)[nH]c1=O,13.4

row,Structure (SMILES),"hERG current change (%, negative = inhibition) at 1uM [%]"
1,O=C(Cc1ccc(O)cc1)NCCNC(=S)NCc1ccccc1,12.2
2,CCOc1ccc(CCNC(=O)Cn2ccc3ccccc3c2=O)cc1OCC,8.42
3,Cc1onc(-c2ccccc2)c1NC(=O)N(CCC#N)Cc1ccccc1,15.5
4,COc1cccc(CN2CCN(c3nc4nonc4nc3NC3CC3)CC2)c1,8.73
5,CC(C)c1ccc(S(=O)(=O)N2CCCCC2)cc1,-0.783
6,O=C(COC(=O)C1CCCCC1)Nc1ccc(S(=O)(=O)N2CCOCC2)cc1,4.75
7,O=C(NNC1CC(=O)N(c2ccc(Br)cc2)C1=O)c1cccs1 (stereo not shown),14.7
8,O=C(COC(=O)c1ccc2ccccc2n1)c1ccc(F)cc1,-5.55
9,CCC(=O)NC1=C(Nc2ccc(N)cc2)C(=O)c2ccccc2C1=O,11.4
10,COc1ccc(CNCC(O)(c2ccc(F)cc2)c2ccc(F)cc2)cc1,-21.9
11,CC(Nc1nc(-c2ccc(Cl)cc2)cs1)c1nc2cc(Cl)c(N3CCCCC3)cc2n1CCOCCO (stereo not shown),13.8
12,CCc1nn2c(N(C)CCO)cc(C)nc2c1-c1ccc(F)cc1,3.36
13,CCOC(=O)c1[nH]cnc1C(=O)Nc1ccccn1,-1.69
14,CN(C)/N=C/c1ccc(P(c2ccc(/C=N/N(C)C)o2)c2ccc(/C=N/N(C)C)o2)o1,14.2
15,CCCCOc1ccc(-c2csc(N)n2)cc1[N+](=O)[O-],13
16,COc1ccc(CCn2c(N3CCN(C)CC3)nc3c2c(=O)[nH]c(=O)n3C)cc1,1.04
17,CCc1nnc(NC(=O)CC(CN(C)S(=O)(=O)c2ccccc2)c2ccccc2)s1 (stereo not shown),21
18,CCCCn1c(N)c(N(CCOC)C(=O)c2ccc(C)c(S(=O)(=O)N3CCCCC3)c2)c(=O)[nH]c1=O,25.7
19,COc1ccc(CNC(=O)CSc2nnc(C(F)(F)F)n2C)cc1,18.8
20,CCN1CCCC1CN(Cc1cc2ccc(C)cc2[nH]c1=O)C(=S)Nc1cccc(OC)c1 (stereo not shown),-44
21,CCCCn1c(N)c(N(CCC(C)C)C(=O)c2cccc(N3C(=O)c4ccccc4C3=O)c2)c(=O)[nH]c1=O,4.4
22,CC(C)(C)CN1CCNC[C@H]1Cc1cccc2ccccc12,14.8
